Test results published in the supplement of paper PMC4967469.
By IC50 is meant the dose at which the fit gives 50% viability; a fit beyond the top or the lowest dose is shown as a bound at that dose. AUC sums up the same curve from the lowest dose to the 256-fold higher top dose; the more sensitive the line, the further below 1. For part of these data: The top dose, if marked as inferred, was derived from the fitted curves, not read from the paper. For part of these data: Where an entry number is given, a second screen of the drug exists; the two often differ.

Compound: Cc1cc(N2CCOCC2)cc2[nH]c(-c3c(NC[C@@H](O)c4cccc(Cl)c4)cc[nH]c3=O)nc12 [BMS-536924]
Assay: Viability of human cancer cell lines after 72 h of drug (GDSC screen)
Conditions: top dose 5.12 µM; screen: GDSC drug entry 62
Description: (§1)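 Human cancer cell lines in 384-well plates, medium with 10% serum, drug for 72 h over a 256-fold dose range (nine 2-fold or five 4-fold steps up to the top dose). Adherent lines were fixed and stained with the nucleic acid dye Syto60, suspension lines read with resazurin; signal relative to control wells, capped at 0 and 100%. One two-parameter sigmoid per drug and line, fitted in a mixed model over all curves with the slope shared within a line.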

Cell Line | AUC | IC50 [µM]
MOLT-13 (T-cell lymphoblastic leukaemia, suspension) | 0.973 | > 5.12
NCI-H23 (lung adenocarcinoma, adherent) | 0.871 | 4.74
NCI-H322M (lung adenocarcinoma, suspension) | 0.896 | > 5.12
NCI-H1355 (lung adenocarcinoma, adherent) | 0.519 | 0.369
NCI-H1648 (lung adenocarcinoma, adherent) | 0.427 | 0.199
NCI-H1666 (lung adenocarcinoma, semi-adherent) | 0.98 | > 5.12
TE-11 (oesophagus, adherent) | 0.371 | 0.146
TGBC24TKB (biliary tract, adherent) | 0.467 | 0.262

Compound: Cc1ccc(-n2nc(C(C)(C)C)cc2NC(=O)Nc2ccc(OCCN3CCOCC3)c3ccccc23)cc1 [BIRB 0796]
Assay: as above
Conditions: top dose 10 µM; top dose inferred
Description: as §1

Cell Line | AUC | IC50 [µM]
697 (lymphoblastic leukaemia, suspension) | 0.932 | > 10
A704 (kidney, adherent) | 0.982 | > 10
Calu-6 (lung adenocarcinoma, adherent) | 0.984 | > 10
EHEB (lymphoid neoplasm, suspension) | 0.917 | > 10
EKVX (lung adenocarcinoma, adherent) | 0.913 | > 10
HOP-62 (lung adenocarcinoma, adherent) | 0.948 | > 10
IA-LM (large cell lung carcinoma, adherent) | 0.984 | > 10
KARPAS-620 (haematopoietic neoplasm, suspension) | 0.99 | > 10
KLE (endometrium, adherent) | 0.939 | > 10
LC-2-ad (lung adenocarcinoma, adherent) | 0.85 | 7.87
LXF-289 (lung adenocarcinoma, adherent) | 0.838 | 6.59
MFM-223 (breast, adherent) | 0.914 | > 10
MOLT-13 (T-cell lymphoblastic leukaemia, suspension) | 0.989 | > 10
NCI-H23 (lung adenocarcinoma, adherent) | 0.968 | > 10
NCI-H322M (lung adenocarcinoma, suspension) | 0.986 | > 10
NCI-H1355 (lung adenocarcinoma, adherent) | 0.897 | > 10
NCI-H1648 (lung adenocarcinoma, adherent) | 0.951 | > 10
TE-11 (oesophagus, adherent) | 0.981 | > 10

Compound: Cc1cccc(-c2[nH]c(C(C)(C)C)nc2-c2ccc3nccnc3c2)n1 [SB-525334]
Assay: as above
Conditions: top dose 20 µM; top dose inferred
Description: as §1

Cell Line | AUC | IC50 [µM]
697 (lymphoblastic leukaemia, suspension) | 0.921 | > 20
A704 (kidney, adherent) | 0.979 | > 20
Calu-6 (lung adenocarcinoma, adherent) | 0.925 | > 20
EKVX (lung adenocarcinoma, adherent) | 0.953 | > 20
GAK (melanoma, adherent) | 0.914 | > 20
HCE-4 (oesophagus, adherent) | 0.991 | > 20
HOP-62 (lung adenocarcinoma, adherent) | 0.947 | > 20
IA-LM (large cell lung carcinoma, adherent) | 0.951 | > 20
JSC-1 (B-cell lymphoma, suspension) | 0.965 | > 20
KARPAS-620 (haematopoietic neoplasm, suspension) | 0.851 | 12.1
KLE (endometrium, adherent) | 0.885 | > 20
KOPN-8 (B-cell leukaemia, suspension) | 0.96 | > 20
LC-2-ad (lung adenocarcinoma, adherent) | 0.839 | 14.1
LXF-289 (lung adenocarcinoma, adherent) | 0.984 | > 20
MFM-223 (breast, adherent) | 0.938 | > 20
MOLT-13 (T-cell lymphoblastic leukaemia, suspension) | 0.948 | > 20
NCI-H23 (lung adenocarcinoma, adherent) | 0.975 | > 20
NCI-H322M (lung adenocarcinoma, suspension) | 0.896 | > 20
NCI-H1355 (lung adenocarcinoma, adherent) | 0.959 | > 20
NCI-H1648 (lung adenocarcinoma, adherent) | 0.968 | > 20
NCI-H1666 (lung adenocarcinoma, semi-adherent) | 0.979 | > 20
TE-11 (oesophagus, adherent) | 0.979 | > 20
TGBC24TKB (biliary tract, adherent) | 0.98 | > 20

Compound: NC(=O)c1ccc(N(C(N)=O)c2c(F)cccc2F)nc1-c1ccc(F)cc1F [VX-702]
Assay: as above
Conditions: top dose 2 µM; top dose inferred
Description: as §1

Cell Line | AUC | IC50 [µM]
697 (lymphoblastic leukaemia, suspension) | 0.966 | > 2
A704 (kidney, adherent) | 0.989 | > 2
Calu-6 (lung adenocarcinoma, adherent) | 0.983 | > 2
EHEB (lymphoid neoplasm, suspension) | 0.907 | > 2
EKVX (lung adenocarcinoma, adherent) | 0.952 | > 2
GAK (melanoma, adherent) | 0.975 | > 2
HOP-62 (lung adenocarcinoma, adherent) | 0.986 | > 2
IA-LM (large cell lung carcinoma, adherent) | 0.972 | > 2
JSC-1 (B-cell lymphoma, suspension) | 0.979 | > 2
KARPAS-620 (haematopoietic neoplasm, suspension) | 0.991 | > 2
KLE (endometrium, adherent) | 0.975 | > 2
KOPN-8 (B-cell leukaemia, suspension) | 0.99 | > 2
LXF-289 (lung adenocarcinoma, adherent) | 0.967 | > 2
MFM-223 (breast, adherent) | 0.989 | > 2
NCI-H23 (lung adenocarcinoma, adherent) | 0.97 | > 2
NCI-H322M (lung adenocarcinoma, suspension) | 0.967 | > 2
NCI-H1648 (lung adenocarcinoma, adherent) | 0.952 | > 2
NCI-H1666 (lung adenocarcinoma, semi-adherent) | 0.969 | > 2
TE-11 (oesophagus, adherent) | 0.989 | > 2

Compound: O=C(c1cc(Cc2n[nH]c(=O)c3ccccc23)ccc1F)N1CCN(C(=O)C2CC2)CC1 [Olaparib]
Assay: as above
Conditions: top dose 5 µM; screen: GDSC drug entry 1017; top dose inferred
Description: as §1

Cell Line | AUC | IC50 [µM]
697 (lymphoblastic leukaemia, suspension) | 0.825 | 2.24
A704 (kidney, adherent) | 0.988 | > 5
Calu-6 (lung adenocarcinoma, adherent) | 0.984 | > 5
EHEB (lymphoid neoplasm, suspension) | 0.961 | > 5
EKVX (lung adenocarcinoma, adherent) | 0.945 | > 5
HOP-62 (lung adenocarcinoma, adherent) | 0.935 | > 5
IA-LM (large cell lung carcinoma, adherent) | 0.984 | > 5
JSC-1 (B-cell lymphoma, suspension) | 0.974 | > 5
KARPAS-620 (haematopoietic neoplasm, suspension) | 0.991 | > 5
KLE (endometrium, adherent) | 0.977 | > 5
KOPN-8 (B-cell leukaemia, suspension) | 0.892 | 4.41
LXF-289 (lung adenocarcinoma, adherent) | 0.962 | > 5
MFM-223 (breast, adherent) | 0.974 | > 5
MOLT-13 (T-cell lymphoblastic leukaemia, suspension) | 0.942 | > 5
NCI-H1648 (lung adenocarcinoma, adherent) | 0.985 | > 5
NCI-H1666 (lung adenocarcinoma, semi-adherent) | 0.941 | > 5
TE-11 (oesophagus, adherent) | 0.99 | > 5

Same assay, conditions: top dose 10 µM; screen: GDSC drug entry 1495

Cell Line | AUC | IC50 [µM]
697 (lymphoblastic leukaemia, suspension) | 0.753 | 2.76
A704 (kidney, adherent) | 0.988 | > 10
Calu-6 (lung adenocarcinoma, adherent) | 0.958 | > 10
EHEB (lymphoid neoplasm, suspension) | 0.964 | > 10
EKVX (lung adenocarcinoma, adherent) | 0.964 | > 10
HOP-62 (lung adenocarcinoma, adherent) | 0.878 | > 10
IA-LM (large cell lung carcinoma, adherent) | 0.956 | > 10
JSC-1 (B-cell lymphoma, suspension) | 0.978 | > 10
KARPAS-620 (haematopoietic neoplasm, suspension) | 0.99 | > 10
KLE (endometrium, adherent) | 0.95 | > 10
KOPN-8 (B-cell leukaemia, suspension) | 0.882 | 8.03
LC-2-ad (lung adenocarcinoma, adherent) | 0.922 | > 10
LXF-289 (lung adenocarcinoma, adherent) | 0.951 | > 10
MFM-223 (breast, adherent) | 0.936 | > 10
MOLT-13 (T-cell lymphoblastic leukaemia, suspension) | 0.892 | 9.27
NCI-H1648 (lung adenocarcinoma, adherent) | 0.966 | > 10
NCI-H1666 (lung adenocarcinoma, semi-adherent) | 0.924 | > 10
TE-11 (oesophagus, adherent) | 0.973 | > 10
TGBC24TKB (biliary tract, adherent) | 0.988 | > 10

Compound: O=C1NC(=O)c2c1c(-c1ccccc1Cl)cc1[nH]c3ccc(O)cc3c21 [Wee1 inhibitor 681640]
Assay: as above
Conditions: top dose 2 µM; top dose inferred
Description: as §1

Cell Line | AUC | IC50 [µM]
697 (lymphoblastic leukaemia, suspension) | 0.875 | 1.32
Calu-6 (lung adenocarcinoma, adherent) | 0.948 | > 2
EHEB (lymphoid neoplasm, suspension) | 0.95 | > 2
GAK (melanoma, adherent) | 0.942 | > 2
HOP-62 (lung adenocarcinoma, adherent) | 0.986 | > 2
IA-LM (large cell lung carcinoma, adherent) | 0.98 | > 2
JSC-1 (B-cell lymphoma, suspension) | 0.979 | > 2
KARPAS-620 (haematopoietic neoplasm, suspension) | 0.991 | > 2
KLE (endometrium, adherent) | 0.96 | > 2
KOPN-8 (B-cell leukaemia, suspension) | 0.947 | > 2
LC-2-ad (lung adenocarcinoma, adherent) | 0.906 | > 2
LXF-289 (lung adenocarcinoma, adherent) | 0.965 | > 2
MFM-223 (breast, adherent) | 0.987 | > 2
MOLT-13 (T-cell lymphoblastic leukaemia, suspension) | 0.939 | > 2
NCI-H23 (lung adenocarcinoma, adherent) | 0.837 | 1.32
NCI-H322M (lung adenocarcinoma, suspension) | 0.965 | > 2
NCI-H1355 (lung adenocarcinoma, adherent) | 0.929 | > 2
NCI-H1648 (lung adenocarcinoma, adherent) | 0.97 | > 2
TE-11 (oesophagus, adherent) | 0.924 | > 2
